US20250019376A1, “CHROMANE AMIDINE MONOBACTAM ANTIBIOTICS” (priority 2021, published 2025)
The name of at least one read-out is uncertain.

Key:
Conditions in all cases: lowest concentration inhibiting 95% of growth (OD600); with BLi relebactam 4 μg/mL; 22 hours, 35±2° C.
[1] = system: Klebsiella pneumoniae expressing KPC-1 (CL6569); assay: Growth inhibitory concentration (OD600), K. pneumoniae CL6569; type: cell-based
[2] = system: Escherichia co/i expressing NDM-1 (CLB30016); assay: Growth inhibitory concentration (OD600), E. coli CLB30016; type: cell-based, Escherichia coli
[3] = system: Acinetobacter baumannii expressing TEM-1, AmpC, and Oxa-24/40 (CL6188); type: cell-based
[4] = system: Pseudomonas aeruginosa expressing AmpC (CL5701); assay: Growth inhibitory concentration (OD600), P. aeruginosa CL5701; type: cell-based

Structure (SMILES) | KP_CL6569 MITC95 [1] [µM] | EC_CLB30016 MITC95 [2] [µM] | AB_CL6188 MITC95 [3] [µM] | PA_CL5701 MITC95 [4] [µM]
CC1(C)[C@H](NC(=O)/C(=N\O[C@](C)(C(=O)O)[C@H]2CCc3cc(C(=N)NC4C5CCC4CNC5)ccc3O2)c2csc(N)n2)C(=O)N1OS(=O)(=O)O (stereo partly drawn) [Compound 76, (S)-2-((R)-6-(N-((1R,5S,8s)-3-azabicyclo[3.2.1]octan-8-yl)carbamimidoyl)chroman-2-yl)-2-((((Z)-1-(2-aminothiazol-4-yl)-2-(((S)-2,2-dimethyl-4-oxo-1-(sulfooxy)azetidin-3-yl)amino)-2-oxoethylidene)amino)oxy)propanoic acid] | 0.3906 | 3.125 | 3.125 | 1.563
CC1(C)[C@H](NC(=O)/C(=N\O[C@](C)(C(=O)O)[C@H]2CCc3cc(C(=N)NC4CC5(CCCNC5)C4)ccc3O2)c2csc(N)n2)C(=O)N1OS(=O)(=O)O (single isomer, unassigned) [Compound 19] | 0.3906 | 3.125 | 3.125 | 3.125
CC1(C)[C@H](NC(=O)/C(=N\O[C@](C)(C(=O)O)[C@H]2CCc3cc(C(=N)N[C@]4(C)CC[C@H](CN)CC4)ccc3O2)c2csc(N)n2)C(=O)N1OS(=O)(=O)O [Compound 130, (S)-2-((R)-6-(N-((1s,4S)-4-(aminomethyl)-1-methylcyclohexyl)carbamimidoyl)chroman-2-yl)-2-((((Z)-1-(2-aminothiazol-4-yl)-2-(((S)-2,2-dimethyl-4-oxo-1-(sulfooxy)azetidin-3-yl)amino)-2-oxoethylidene)amino)oxy)propanoic acid] | 0.7813 | 25 | 12.5 | 3.125
CC1(C)[C@H](NC(=O)/C(=N\O[C@](C)(C(=O)O)[C@H]2CCc3cc(C(=N)N[C@H]4CC[C@@H](N)C4)ccc3O2)c2csc(N)n2)C(=O)N1OS(=O)(=O)O (single isomer, unassigned) [Compound 46] | 0.3906 | 6.25 | 6.25 | 1.563
CC1(C)[C@H](NC(=O)/C(=N\O[C@](C)(C(=O)O)[C@H]2CCc3cc(C(=N)NC4CC5(C4)CC(F)(CN)C5)ccc3O2)c2csc(N)n2)C(=O)N1OS(=O)(=O)O (single isomer, unassigned) [Compound 119] | 0.3906 | 6.25 | 6.25 | 1.563
CC1(C)[C@H](NC(=O)/C(=N\O[C@](C)(C(=O)O)[C@H]2CCc3cc(C(=N)N[C@@H]4CC[C@@H](N)[C@@H]5C[C@@H]54)ccc3O2)c2csc(N)n2)C(=O)N1OS(=O)(=O)O (single isomer, unassigned) [Compound 24] | 0.3255 | 5.208 | 2.083 | 1.302
CC1(C)[C@H](NC(=O)/C(=N\O[C@](C)(C(=O)O)[C@H]2CCc3cc(C(=N)N[C@@H]4CCC[C@H](N)CC4)ccc3O2)c2csc(N)n2)C(=O)N1OS(=O)(=O)O (single isomer, unassigned) [Compound 104] | 0.5859 | 4.688 | 3.125 | 1.563
CN[C@]1(CO)C[C@@H](NC(=N)c2ccc3c(c2)CC[C@H]([C@](C)(O/N=C(\C(=O)N[C@@H]2C(=O)N(OS(=O)(=O)O)C2(C)C)c2csc(N)n2)C(=O)O)O3)C1 [Compound 90, (S)-2-((((Z)-1-(2-aminothiazol-4-yl)-2-(((S)-2,2-dimethyl-4-oxo-1-(sulfooxy)azetidin-3-yl)amino)-2-oxoethylidene)amino)oxy)-2-((R)-6-(N-((1r,3R)-3-(hydroxymethyl)-3-(methylamino)cyclobutyl)carbamimidoyl)chroman-2-yl)propanoic acid] | 0.3906 | 6.25 | 6.25 | 1.563
CC1(C)[C@H](NC(=O)/C(=N\O[C@](C)(C(=O)O)[C@H]2CCc3cc(C(=N)N[C@H]4CN[C@@H](CO)C4)ccc3O2)c2csc(N)n2)C(=O)N1OS(=O)(=O)O [Compound 4, (S)-2-((((Z)-1-(2-aminothiazol-4-yl)-2-(((S)-2,2-dimethyl-4-oxo-1-(sulfooxy)-azetidin-3-yl)amino)-2-oxoethylidene)amino)oxy)-2-((R)-6-(N-((3R,5R)-5-(hydroxymethyl)pyrrolidin-3-yl)carbamimidoyl)chroman-2-yl)propanoic acid] | 0.7813 | 12.5 | 12.5 | 6.25
CC1(C)[C@H](NC(=O)/C(=N\O[C@](C)(C(=O)O)[C@H]2CCc3cc(C(=N)NC45CCC(N)(CC4)CC5)ccc3O2)c2csc(N)n2)C(=O)N1OS(=O)(=O)O [Compound 35, (S)-2-((R)-6-(N-(4-aminobicyclo[2.2.2]octan-1-yl)carbamimidoyl)chroman-2-yl)-2-((((Z)-1-(2-aminothiazol-4-yl)-2-(((S)-2,2-dimethyl-4-oxo-1-(sulfooxy)azetidin-3-yl)amino)-2-oxoethylidene)amino)oxy)propanoic acid] | 0.3906 | 3.125 | 3.125 | 1.563
CC1(C)[C@H](NC(=O)/C(=N\O[C@](C)(C(=O)O)[C@H]2CCc3cc(C(=N)N[C@H]4CN[C@H](CO)C4)ccc3O2)c2csc(N)n2)C(=O)N1OS(=O)(=O)O [Compound 33, (S)-2-((((Z)-1-(2-aminothiazol-4-yl)-2-(((S)-2,2-dimethyl-4-oxo-1-(sulfooxy)azetidin-3-yl)amino)-2-oxoethylidene)amino)oxy)-2-((R)-6-(N-((3R,5S)-5-(hydroxymethyl)pyrrolidin-3-yl)carbamimidoyl)chroman-2-yl)propanoic acid] | 0.3906 | 6.25 | 6.25 | 1.563
CO[C@]1(CN)C[C@@H](NC(=N)c2ccc3c(c2)CC[C@H]([C@](C)(O/N=C(\C(=O)N[C@@H]2C(=O)N(OS(=O)(=O)O)C2(C)C)c2csc(N)n2)C(=O)O)O3)C1 [Compound 82, (S)-2-((R)-6-(N-((1r,3R)-3-(aminomethyl)-3-methoxycyclobutyl)carbamimidoyl)chroman-2-yl)-2-((((Z)-1-(2-aminothiazol-4-yl)-2-(((S)-2,2-dimethyl-4-oxo-1-(sulfooxy)azetidin-3-yl)amino)-2-oxoethylidene)amino)oxy)propanoic acid] | 0.7813 | 6.25 | 6.25 | 3.125
CC1(C)[C@H](NC(=O)/C(=N\O[C@](C)(C(=O)O)[C@H]2CCc3cc(C(=N)N[C@H]4CC[C@](N)(CCO)CC4)ccc3O2)c2csc(N)n2)C(=O)N1OS(=O)(=O)O [Compound 65, (S)-2-((R)-6-(N-((1s,4S)-4-amino-4-(2-hydroxyethyl)cyclohexyl)carbamimidoyl)chroman-2-yl)-2-((((Z)-1-(2-aminothiazol-4-yl)-2-(((S)-2,2-dimethyl-4-oxo-1-(sulfooxy)azetidin-3-yl)amino)-2-oxoethylidene)amino)oxy)propanoic acid] | 0.3906 | 6.25 | 6.25 | 1.563
CC1(C)[C@H](NC(=O)/C(=N\O[C@](C)(C(=O)O)[C@H]2CCc3cc(C(=N)N[C@H]4CCC[C@H](N)C4)ccc3O2)c2csc(N)n2)C(=O)N1OS(=O)(=O)O [Compound 109, (S)-2-((R)-6-(N-((1S,3S)-3-aminocyclohexyl)carbamimidoyl)chroman-2-yl)-2-((((Z)-1-(2-aminothiazol-4-yl)-2-(((S)-2,2-dimethyl-4-oxo-1-(sulfooxy)azetidin-3-yl)amino)-2-oxoethylidene)amino)oxy)propanoic acid] | 0.7813 | 6.25 | 6.25 | 1.563
CC1(C)[C@H](NC(=O)/C(=N\O[C@](C)(C(=O)O)[C@H]2CCc3cc(C(=N)NC4CCCC(N)CC4)ccc3O2)c2csc(N)n2)C(=O)N1OS(=O)(=O)O (single isomer, unassigned) [Compound 106] | 0.3906 | 6.25 | 3.125 | 1.563
CO[C@]1(CN)CC[C@H](NC(=N)c2ccc3c(c2)CC[C@H]([C@](C)(O/N=C(\C(=O)N[C@@H]2C(=O)N(OS(=O)(=O)O)C2(C)C)c2csc(N)n2)C(=O)O)O3)CC1 [Compound 73, (S)-2-((R)-6-(N-((1s,4S)-4-(aminomethyl)-4-methoxycyclohexyl)carbamimidoyl)chroman-2-yl)-2-((((Z)-1-(2-aminothiazol-4-yl)-2-(((S)-2,2-dimethyl-4-oxo-1-(sulfooxy)azetidin-3-yl)amino)-2-oxoethylidene)amino)oxy)propanoic acid] | 0.7813 | 6.25 | 6.25 | 3.125
CC1(C)[C@H](NC(=O)/C(=N\O[C@](C)(C(=O)O)[C@H]2CCc3cc(C(=N)N[C@H]4C[C@@](N)(C(O)CO)C4)ccc3O2)c2csc(N)n2)C(=O)N1OS(=O)(=O)O (single isomer, unassigned) [Compound 98] | 0.7813 | 12.5 | 6.25 | 1.563
